Source: the supplement of paper PMC11417369
± gives the standard deviation of the averaged measurements. The list shows a part of the results.

These sequences were tested on PfAP2-EXP AP2 domain (GST-tagged) (assay: gcPBM binding intensity (ln(normalized median fluorescence intensity)); higher = stronger DNA binding).
In short: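 DNA-binding domains from P. falciparum, fused to GST and produced in E. coli, were put on an Agilent 4 × 180k double-stranded probe array for 1 h in 1× PBS holding 1% milk, 0.2 mg/ml BSA, 0.5% salmon testes DNA and 0.03% Triton X-100. Probes were primer-extended, 36 bp long and drawn from intergenic genomic regions, with negative controls included. After Alexa488 anti-GST antibody detection and a 488 nm scan, binding intensity was set as the highest Masliner-normalised natural-log median intensity across replicate spots of either probe orientation.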

Sequence | gcPBM binding intensity (ln)
TTACAAAACCGATGTTGTACATTCAATAGATAATGT [XGTACX_site3806] | 8.44 ± 0.32
TAGTTGTGAGTTACATGTACATGTATTTATTTTTTA [XGTACX_site7088] | 8.88 ± 0.47
ATATACCATATGCATGGTACACATTTACAACAAAAA [XGTACX_site3142] | 8.44 ± 0.31
AATGTATAAAAGTTTTGTACATATTCTCACACATAT [XGTACX_site965] | 8.53 ± 0.46
TTTATTAAATAAAGCACACACAACAACTTTTCACAA [CACACA_site4132] | 8.78 ± 0.35
GATAACAATATGTGTACACATTTATATCTCCACATA [CACACA_site5442] | 8.87 ± 0.14
ATAACGTAAACAATGTGGACACATACATAAATATAT [XGTACX_site707] | 8.71 ± 0.35
TAATACTTAAAATGTTGTACATAATAATTTTATATT [XGTACX_site5403] | 8.31 ± 0.16
CATATGCGTCTTGCCTTGCACACTTTTATGAAAAAA [CACACA_site2055] | 8.88 ± 0.48
TATAACAAGTAATGGTGTACATTATATTATGTAATA [XGTACX_site2761] | 8.45 ± 0.27
TATATATATATATATACATGCATTTCTCATGTACAT [TGCATGCA_site621] | 10.2 ± 0.33
GTCATCATAATCTATTGTACAAAAATTTATACAGAT [XGTACX_site1059] | 8.66 ± 0.26
ATAAATACATTAAAATGTACATAAAAATATTACTGG [XGTACX_site1484] | 8.42 ± 0.41
TACATTAAACGAATAGTGCAAGAAGTATTCGTATAA [GTGCAC_site9939] | 8.78 ± 0.13
TATAAAAATAAGTATACACACAAAATGCGTAACTTT [CACACA_site1295] | 8.12 ± 0.37
AAAAAAAAAAAAAACACACACACACGCAAATACATA [CACACA_site6474] | 8.68 ± 0.46
TCCTTAAATATAAAGGTGCTATGCAGACCTTATGTT [GTGCAC_site9472] | 8.1 ± 0.25
TTATAAATTCAATGTACTACACAAAATGAATTTAAT [XGTACX_site6683] | 8.43 ± 0.28
TACAGACATAGACACACACACACGCATAAAAAAAAA [CACACA_site6820] | 8.67 ± 0.41
ATATAAGTACGGCATGCATGCACATTTTTTTATTCC [TGCATGCA_site101] | 10.3 ± 0.23
TTCCTATAAAAAAACACACACATATAAATATAAATA [CACACA_site7154] | 8.69 ± 0.4
TGTGCTCGCTATTACACACTCATTGGGATAAAATTG [CACACA_site2029] | 8.61 ± 0.44

Sequence | gcPBM binding intensity (ln)
TACATAAACATTTATACACACATTATATATACATAT [CACACA_site8028] | 8.6 ± 0.41
TGGCTTATTCAGAAATGTACACATATAAATATATAT [XGTACX_site3765] | 8.6 ± 0.47
TGAATAAATAAGATACGTACACACATATACAAAATA [XGTACX_site7758] | 8.79 ± 0.39
TTTCTTTTAATTATCCGTACACAAACAATAAAATAA [XGTACX_site7841] | 8.57 ± 0.33
AAAATAATATATGTATGTACACAATTATTTATAAGT [XGTACX_site7267] | 8.65 ± 0.47
TACTTCTTTTTTATTTATTTTACTTTTTATTCTGTA [CACACA_negctrl_site772] | 8.98 ± 0.54
GCTTATGCTCAATATTGTACTTTTTTTATTTATTCA [XGTACX_site8863] | 8.98 ± 0.44
ATTTAATTTTTTTTTAAACACACATTTTTTTATTTA [CACACA_site8880] | 8.46 ± 0.31
TTCAATTATATTCTTTGTACGAATCTTCTATAAATT [XGTACX_site4346] | 8.86 ± 0.48
AAAATTATTAAATATGTACACACGTACATTTTATAA [CACACA_site8750] | 8.12 ± 0.32
TATAAATATGTGTATACACACCTGATAAAGGTATAT [CACACA_site7283] | 8.67 ± 0.44
AAATAAATAATAAATAAATAAATAAAATACCAAATA [GTGCAC_negctrl_site620] | 8.72 ± 0.28
ATATATATATATATATGTACATATACACATGTGTGC [XGTACX_site168] | 10.1 ± 0.33
TTATGTAGTATAATGAGTACTAAATATAGATATGTT [XGTACX_site6335] | 8.51 ± 0.28
AATTACTTAAATTATTGTACCCTAATGTTAATTTCA [XGTACX_site825] | 8.44 ± 0.35
AATATTATAAATGATACACACTTAAAATACAGACAC [CACACA_site8868] | 8.81 ± 0.42
TTCATAAAAAATGTAGTGCATTGAATAAAATTACAT [GTGCAC_site9393] | 8.39 ± 0.13
TTTTATATCTACCTTTGTACATATTTATTTTTTTTA [XGTACX_site7872] | 8.82 ± 0.31
TAAATTTTTTTTTTTTGTACACAAAAATATAATATT [XGTACX_site8151] | 8.18 ± 0.38
TTAATTTTGGTAAATGCATGTAATTAAAAATAAAAA [TGCATGCA_site234] | 9.03 ± 0.51
ATATTGAAATTAAAAAAATATATGAACAAATGATGA [CACACA_negctrl_site602] | 8.88 ± 0.79
TATTTTGAAATGGAAAGGATATAGAACTTAAACAAA [CACACA_negctrl_site1530] | 8.6 ± 0.29
